Most values come without repeats; read them as rough.
How the values were obtained:
CHO-K1 [1] = experiment: hypodiploid nuclei frequency (% of nucleated events); higher = more hypodiploid events (aneugenic)
Method: (§1)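 Flow-cytometric in vitro micronucleus assay (Litron MicroFlow) in CHO-K1 cells in 96-well plates, 19 concentrations (4.5-200 µM, n=1 per concentration). Without S9, cells were exposed for 24 h and sampled at 48 h. With Aroclor 1254-induced rat liver S9, cells were exposed for 3-4 h and sampled at 27-28 h. Read-outs are %MN and %hypodiploid nuclei relative to nucleated events, and relative survival as the nuclei-to-bead ratio versus the 1% DMSO vehicle control (x100).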

CHO-K1 [2] = experiment: relative survival (nuclei to bead ratio vs DMSO control) (% of vehicle control); higher = more surviving cells
Method: as §1

CHO-K1 [3] = experiment: micronucleus frequency (% of nucleated events); higher = more micronuclei (genotoxic)
[4] = concentration: 4.5 (µM), S9 metabolic activation: with S9, exposure time: 3-4 hours
[5] = concentration: 4.5 (µM), S9 metabolic activation: without S9, exposure time: 24 hours
[6] = concentration: 5.63 (µM), S9 metabolic activation: with S9, exposure time: 3-4 hours
[7] = concentration: 5.63 (µM), S9 metabolic activation: without S9, exposure time: 24 hours
[8] = concentration: 7.04 (µM), S9 metabolic activation: with S9, exposure time: 3-4 hours
[9] = concentration: 7.04 (µM), S9 metabolic activation: without S9, exposure time: 24 hours
[10] = concentration: 8.8 (µM), S9 metabolic activation: with S9, exposure time: 3-4 hours
[11] = concentration: 8.8 (µM), S9 metabolic activation: without S9, exposure time: 24 hours
[12] = concentration: 11 (µM), S9 metabolic activation: with S9, exposure time: 3-4 hours
[13] = concentration: 11 (µM), S9 metabolic activation: without S9, exposure time: 24 hours
[14] = concentration: 13.7 (µM), S9 metabolic activation: with S9, exposure time: 3-4 hours
[15] = concentration: 13.7 (µM), S9 metabolic activation: without S9, exposure time: 24 hours
[16] = concentration: 17.2 (µM), S9 metabolic activation: with S9, exposure time: 3-4 hours
[17] = concentration: 17.2 (µM), S9 metabolic activation: without S9, exposure time: 24 hours
[18] = concentration: 21.5 (µM), S9 metabolic activation: with S9, exposure time: 3-4 hours
[19] = concentration: 21.5 (µM), S9 metabolic activation: without S9, exposure time: 24 hours
[20] = concentration: 26.8 (µM), S9 metabolic activation: with S9, exposure time: 3-4 hours
[21] = concentration: 26.8 (µM), S9 metabolic activation: without S9, exposure time: 24 hours
[22] = concentration: 33.6 (µM), S9 metabolic activation: with S9, exposure time: 3-4 hours
[23] = concentration: 33.6 (µM), S9 metabolic activation: without S9, exposure time: 24 hours
[24] = concentration: 41.9 (µM), S9 metabolic activation: with S9, exposure time: 3-4 hours
[25] = concentration: 41.9 (µM), S9 metabolic activation: without S9, exposure time: 24 hours
[26] = concentration: 52.4 (µM), S9 metabolic activation: with S9, exposure time: 3-4 hours
[27] = concentration: 52.4 (µM), S9 metabolic activation: without S9, exposure time: 24 hours
[28] = concentration: 65.5 (µM), S9 metabolic activation: with S9, exposure time: 3-4 hours
[29] = concentration: 65.5 (µM), S9 metabolic activation: without S9, exposure time: 24 hours
[30] = concentration: 81.9 (µM), S9 metabolic activation: with S9, exposure time: 3-4 hours
[31] = concentration: 81.9 (µM), S9 metabolic activation: without S9, exposure time: 24 hours
[32] = concentration: 102 (µM), S9 metabolic activation: with S9, exposure time: 3-4 hours
[33] = concentration: 102 (µM), S9 metabolic activation: without S9, exposure time: 24 hours
[34] = concentration: 128 (µM), S9 metabolic activation: with S9, exposure time: 3-4 hours
[35] = concentration: 128 (µM), S9 metabolic activation: without S9, exposure time: 24 hours
[36] = concentration: 160 (µM), S9 metabolic activation: with S9, exposure time: 3-4 hours
[37] = concentration: 160 (µM), S9 metabolic activation: without S9, exposure time: 24 hours
[38] = concentration: 200 (µM), S9 metabolic activation: with S9, exposure time: 3-4 hours
[39] = concentration: 200 (µM), S9 metabolic activation: without S9, exposure time: 24 hours
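Throughout, for hypodiploid nuclei frequency (% of nucleated events): hypodiploid nuclei gated on a flow cytometer with 488 nm excitation after SYTOX Green staining, cultures at 37 °C, positive controls vinblastine without S9 and cyclophosphamide with S9.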
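Throughout, for micronucleus frequency (% of nucleated events): cells lysed with nuclei stained by SYTOX Green, then micronucleus-gated events counted against nucleated events by flow cytometry with 488 nm excitation.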
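Throughout, for relative survival (nuclei to bead ratio vs DMSO control): Lysed-cell nuclei stained with SYTOX Green and counted against counting beads by flow cytometry at 488 nm excitation, with vinblastine (no S9) and cyclophosphamide (plus S9) as positive controls.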

SMILES: CCc1cccc(C)c1N(C(=O)CCl)C(C)COC (stereo not drawn) [Metolachlor]
- hypodiploid nuclei frequency (CHO-K1 [1]; [4]): 0.18%
- hypodiploid nuclei frequency (CHO-K1 [1]; [5]): 0.72%
- hypodiploid nuclei frequency (CHO-K1 [1]; [6]): 0.38%
- hypodiploid nuclei frequency (CHO-K1 [1]; [7]): 0.7%
- hypodiploid nuclei frequency (CHO-K1 [1]; [8]): 0.32%
- hypodiploid nuclei frequency (CHO-K1 [1]; [9]): 0.58%
- hypodiploid nuclei frequency (CHO-K1 [1]; [10]): 0.2%
- hypodiploid nuclei frequency (CHO-K1 [1]; [11]): 0.46%
- hypodiploid nuclei frequency (CHO-K1 [1]; [12]): 0.12%
- hypodiploid nuclei frequency (CHO-K1 [1]; [13]): 0.9%
- hypodiploid nuclei frequency (CHO-K1 [1]; [14]): 0.18%
- hypodiploid nuclei frequency (CHO-K1 [1]; [15]): 0.72%
- hypodiploid nuclei frequency (CHO-K1 [1]; [16]): 0.16%
- hypodiploid nuclei frequency (CHO-K1 [1]; [17]): 0.62%
- hypodiploid nuclei frequency (CHO-K1 [1]; [18]): 0.14%
- hypodiploid nuclei frequency (CHO-K1 [1]; [19]): 0.68%
- hypodiploid nuclei frequency (CHO-K1 [1]; [20]): 0.22%
- hypodiploid nuclei frequency (CHO-K1 [1]; [21]): 0.8%
- hypodiploid nuclei frequency (CHO-K1 [1]; [22]): 0.16%
- hypodiploid nuclei frequency (CHO-K1 [1]; [23]): 0.9%
- hypodiploid nuclei frequency (CHO-K1 [1]; [24]): 0.14%
- hypodiploid nuclei frequency (CHO-K1 [1]; [25]): 0.56%
- hypodiploid nuclei frequency (CHO-K1 [1]; [26]): 0.26%
- hypodiploid nuclei frequency (CHO-K1 [1]; [27]): 0.7%
- hypodiploid nuclei frequency (CHO-K1 [1]; [28]): 0.16%
- hypodiploid nuclei frequency (CHO-K1 [1]; [29]): 0.68%
- hypodiploid nuclei frequency (CHO-K1 [1]; [30]): 0.2%
- hypodiploid nuclei frequency (CHO-K1 [1]; [31]): 0.74%
- hypodiploid nuclei frequency (CHO-K1 [1]; [32]): 0.2%
- hypodiploid nuclei frequency (CHO-K1 [1]; [33]): 0.9%
- hypodiploid nuclei frequency (CHO-K1 [1]; [34]): 0.3%
- hypodiploid nuclei frequency (CHO-K1 [1]; [35]): 0.78%
- hypodiploid nuclei frequency (CHO-K1 [1]; [36]): 0.19%
- hypodiploid nuclei frequency (CHO-K1 [1]; [37]): 1.04%
- hypodiploid nuclei frequency (CHO-K1 [1]; [38]): 0.2%
- hypodiploid nuclei frequency (CHO-K1 [1]; [39]): 1.1%
- relative survival (CHO-K1 [2]; [4]): 167
- relative survival (CHO-K1 [2]; [5]): 145
- relative survival (CHO-K1 [2]; [6]): 136
- relative survival (CHO-K1 [2]; [7]): 146
- relative survival (CHO-K1 [2]; [8]): 152
- relative survival (CHO-K1 [2]; [9]): 140
- relative survival (CHO-K1 [2]; [10]): 144
- relative survival (CHO-K1 [2]; [11]): 145
- relative survival (CHO-K1 [2]; [12]): 128
- relative survival (CHO-K1 [2]; [13]): 149
- relative survival (CHO-K1 [2]; [14]): 109
- relative survival (CHO-K1 [2]; [15]): 139
- relative survival (CHO-K1 [2]; [16]): 129
- relative survival (CHO-K1 [2]; [17]): 141
- relative survival (CHO-K1 [2]; [18]): 129
- relative survival (CHO-K1 [2]; [19]): 120
- relative survival (CHO-K1 [2]; [20]): 122
- relative survival (CHO-K1 [2]; [21]): 142
- relative survival (CHO-K1 [2]; [22]): 156
- relative survival (CHO-K1 [2]; [23]): 162
- relative survival (CHO-K1 [2]; [24]): 117
- relative survival (CHO-K1 [2]; [25]): 144
- relative survival (CHO-K1 [2]; [26]): 122
- relative survival (CHO-K1 [2]; [27]): 129
- relative survival (CHO-K1 [2]; [28]): 104
- relative survival (CHO-K1 [2]; [29]): 129
- relative survival (CHO-K1 [2]; [30]): 114
- relative survival (CHO-K1 [2]; [31]): 126
- relative survival (CHO-K1 [2]; [32]): 119
- relative survival (CHO-K1 [2]; [33]): 113
- relative survival (CHO-K1 [2]; [34]): 104
- relative survival (CHO-K1 [2]; [35]): 130
- relative survival (CHO-K1 [2]; [36]): 93.9
- relative survival (CHO-K1 [2]; [37]): 94.2
- relative survival (CHO-K1 [2]; [38]): 96.6
- relative survival (CHO-K1 [2]; [39]): 77.7
- micronucleus frequency (CHO-K1 [3]; [4]): 1.46%
- micronucleus frequency (CHO-K1 [3]; [5]): 2.46%
- micronucleus frequency (CHO-K1 [3]; [6]): 1.42%
- micronucleus frequency (CHO-K1 [3]; [7]): 3.48%
- micronucleus frequency (CHO-K1 [3]; [8]): 1.64%
- micronucleus frequency (CHO-K1 [3]; [9]): 2.2%
- micronucleus frequency (CHO-K1 [3]; [10]): 1.42%
- micronucleus frequency (CHO-K1 [3]; [11]): 2.9%
- micronucleus frequency (CHO-K1 [3]; [12]): 1.26%
- micronucleus frequency (CHO-K1 [3]; [13]): 2.88%
- micronucleus frequency (CHO-K1 [3]; [14]): 1.62%
- micronucleus frequency (CHO-K1 [3]; [15]): 2.86%
- micronucleus frequency (CHO-K1 [3]; [16]): 1.9%
- micronucleus frequency (CHO-K1 [3]; [17]): 2.68%
- micronucleus frequency (CHO-K1 [3]; [18]): 1.84%
- micronucleus frequency (CHO-K1 [3]; [19]): 2.1%
- micronucleus frequency (CHO-K1 [3]; [20]): 0.86%
- micronucleus frequency (CHO-K1 [3]; [21]): 1.5%
- micronucleus frequency (CHO-K1 [3]; [22]): 1.3%
- micronucleus frequency (CHO-K1 [3]; [23]): 2.74%
- micronucleus frequency (CHO-K1 [3]; [24]): 1.02%
- micronucleus frequency (CHO-K1 [3]; [25]): 1.58%
- micronucleus frequency (CHO-K1 [3]; [26]): 0.94%
- micronucleus frequency (CHO-K1 [3]; [27]): 1.82%
- micronucleus frequency (CHO-K1 [3]; [28]): 1.24%
- micronucleus frequency (CHO-K1 [3]; [29]): 1.84%
- micronucleus frequency (CHO-K1 [3]; [30]): 1.24%
- micronucleus frequency (CHO-K1 [3]; [31]): 2.18%
- micronucleus frequency (CHO-K1 [3]; [32]): 1.28%
- micronucleus frequency (CHO-K1 [3]; [33]): 1.76%
- micronucleus frequency (CHO-K1 [3]; [34]): 1.3%
- micronucleus frequency (CHO-K1 [3]; [35]): 1.74%
- micronucleus frequency (CHO-K1 [3]; [36]): 1.65%
- micronucleus frequency (CHO-K1 [3]; [37]): 2.08%
- micronucleus frequency (CHO-K1 [3]; [38]): 1.55%
- micronucleus frequency (CHO-K1 [3]; [39]): 1.88%

Source: the supplement of paper PMC9151546
